{"source": "PubChem BioAssay AID1345083", "about": "(National Center for Advancing Translational Sciences (NCATS), 2018)", "note": "Hit rate of the full screen: of about 94,000 compounds, about 6,200 (6.6%) were called active. The inconclusive results got no clear call from the source; some entries with a clear call stand among them for comparison. The call rests on the fitted dose curve; in most records, active means well fitted inhibition curve with a large enough effect; inconclusive means small, poorly fitted or top-dose-only effect; inactive means flat fitted curve, though single readings scatter. A potency beside an inconclusive call is a rough fit, not a confirmed value. Potency means the concentration at half of the fitted maximal effect; tags describe the fitted curve by direction and shape.", "data": [{"assay": "Cytotoxic Profiling in HEK 293 Cell Line of Diverse Libraries Using Quantitative High-Throughput Screening; further: nearly all actives have a fitted effect of over 60% in size", "conditions": "HEK 293 viability, ATP luminescence (CellTiter-Glo), 48-72 h; series mostly up to 115 µM", "outline": "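Cells seeded first (HEK 293, 250 cells/well), then compound added by pintool. Incubation ran 48 or 72 hr at 37 degree Celsius. CellTiter-Glo was added and luminescence imaged after 10 min at room temperature.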", "values": [{"smiles": "CN1CCC(Nc2ncc(C(C)(C)C(=O)O)c(N3CCOCC3)n2)CC1", "Potency": "inactive"}, {"smiles": "Cc1ccc(NC(=O)C2CCN(C(=O)c3ncn4c3COC(c3ccccc3)C4)CC2)cc1", "note": "(stereo not given)", "Potency": "inactive"}, {"smiles": "COCCN1C(=O)c2ccccc2C(C(=O)Nc2nc3ccccc3s2)C12CCCCC2", "note": "(stereo not given)", "Potency": "inconclusive: 44.7 µM [inhibitor, partial curve, poor fit]"}, {"smiles": "Cn1c(C(=O)N2CCc3c(n(Cc4cccnc4)n(-c4ccccc4)c3=O)C2)cc2ccccc21", "Potency": "inactive"}, {"smiles": "CCOC1CCOC2(CCN(C(=O)c3n[nH]c4ccccc34)CC2)C1", "note": "(stereo not given)", "Potency": "inactive"}, {"smiles": "O=C(NC1CCN(c2nc3ncccc3o2)CC1)c1ccccc1Cl", "Potency": "inconclusive: 100 µM [inhibitor, single point]"}, {"smiles": "COc1ccc(-c2ccc3nc(-c4ccc(SC)cc4)oc3c2)c(OC)c1OC", "Potency": "inconclusive: 50.1 µM [inhibitor, partial curve]"}, {"smiles": "COc1ccc(OCC2(C)COc3ccc(C(=O)NCc4cccnc4)cc3N2)cc1", "note": "(stereo not given)", "Potency": "inconclusive: 100 µM [inhibitor, partial curve, poor fit]"}, {"smiles": "CCN1c2cc(C(=O)NCc3ccc(F)cc3Cl)ccc2C(=O)N2CCCCC21", "note": "(stereo not given)", "Potency": "inconclusive: 56.2 µM [inhibitor, partial curve, poor fit]"}, {"smiles": "O=C(O)C1CCc2nnc(C3CCCN(C(=O)c4cccc(Cl)c4)C3)n21", "note": "(stereo not given)", "Potency": "inactive"}, {"smiles": "CC(C)NC(=O)C[C@@H]1O[C@H](CNS(C)(=O)=O)[C@@H](O)[C@H]1O", "Potency": "inactive"}, {"smiles": "CCC(C)(C)NC(=O)CC1Sc2ncccc2N(CC(C)C)C1=O", "note": "(stereo not given)", "Potency": "inconclusive: 100 µM [inhibitor, single point]"}, {"smiles": "CCCCNC(=O)CC(c1cccc(OC)c1)c1c[nH]c2ccccc12", "note": "(stereo not given)", "Potency": "active: 79.4 µM"}, {"smiles": "O=C(Cc1ccccc1)NC1CCN(c2ccnc3ccnn23)C1", "note": "(stereo not given)", "Potency": "inconclusive: 89.1 µM [inhibitor, partial curve]"}, {"smiles": "CCCc1cnc(C)nc1N1CCN(Cc2ccccc2F)C(CCO)C1", "note": "(stereo not given)", "Potency": "inconclusive: 89.1 µM [inhibitor, single point]"}, {"smiles": "CC(=O)N1CCCC1C(=O)N1CCC(N2Cc3ccccc3C2=O)CC1", "note": "(stereo not given)", "Potency": "inactive"}, {"smiles": "COc1cccc(NC(=O)Cc2c[nH]c3ncc(-c4ccccc4C)cc23)c1", "Potency": "active: 70.8 µM"}, {"smiles": "Cc1nncn1C1CCN(S(=O)(=O)c2ccc(Cl)cc2)CC1", "Potency": "inactive"}, {"smiles": "O=C(Cc1ccc(F)cc1)N1CCN(C(=O)c2nnn3c2COC(c2ccc(Cl)cc2)C3)CC1", "note": "(stereo not given)", "Potency": "inconclusive: 15.8 µM [inhibitor, full curve, poor fit]"}, {"smiles": "CCOC(=O)C[C@@H]1C[C@@H](C(C)C)[C@H](CNC(=O)c2ccc(F)cc2)C=C1C", "Potency": "active: 35.5 µM"}]}]}
